# According to the supplement of paper PMC8728848:
# The list shows a part of the results.
# B1: Banana lectin (Musa acuminata) (protein)
# chain: MNGAIKVGAHGGNGGSAFDMGPAYRIISVKIFSGDVVDGVDVTFTYYGKTETRHYGGSGGTPHEIVLQEGEYLVGMAGEVANYHGAVVLGKLGFSTNKKAYGPFGNTGGTPFSLPIAAGKISGFFGRGGKFLDAIGVYLEPLEHHHHHH
# Tests used:
# Assay in all cases: glycan array binding signal (z-score within array); higher = stronger binding
# Conditions in all cases: glycan notation: IUPAC condensed, linker removed; mutation: W10H
# [1] = target: Gal6S(b1-4)Glc
# Method in brief: (§1)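 The binding signal is a Z-score computed within each array and averaged over linkers. Arrays of the same protein sequence at different concentrations or buffers were also averaged together. Data originate from 3228 arrays in the Consortium for Functional Glycomics database, kept only where the protein sequence was available.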
# [2] = target: Gal6S(b1-4)Glc6S
# Method in brief: as §1
# [3] = target: Gal6S(b1-4)GlcNAc
# Method in brief: as §1
# [4] = target: Gal6S(b1-4)GlcNAc6S
# Method in brief: as §1
# [5] = target: GalNAc(a1-3)Gal
# Method in brief: as §1
# [6] = target: GalNAc(a1-3)GalNAc
# Method in brief: as §1
# [7] = target: GalNAc(a1-3)GalNAc(b1-3)Gal(a1-4)Gal(b1-4)Glc
# Method in brief: as §1
# [8] = target: GalNAc(a1-3)GalNAc(b1-3)Gal(a1-4)Gal(b1-4)GlcNAc
# Method in brief: as §1
# [9] = target: GalNAc(b1-3)Gal
# Method in brief: as §1
# [10] = target: GalNAc(b1-3)Gal(a1-4)Gal(b1-4)GlcNAc
# Method in brief: as §1
# [11] = target: GalNAc(b1-3)Gal(a1-4)Gal(b1-4)GlcNAc(b1-3)Gal(b1-4)Glc
# Method in brief: as §1
# [12] = target: GalNAc(b1-3)Gal(a1-6)Gal(b1-4)Glc
# Method in brief: as §1
# [13] = target: GalNAc(b1-3)GalNAc
# Method in brief: as §1
# [14] = target: GalNAc(b1-3)GlcNAc
# Method in brief: as §1
# [15] = target: GalNAc(b1-4)Gal(b1-4)Glc
# Method in brief: as §1
# [16] = target: GalNAc(b1-4)GlcNAc
# Method in brief: as §1
# [17] = target: GalNAc(b1-4)GlcNAc(b1-2)Man
# Method in brief: as §1
# [18] = target: GalNAc(b1-4)GlcNAc(b1-2)Man(a1-3)[GalNAc(b1-4)GlcNAc(b1-2)Man(a1-6)]Man(b1-4)GlcNAc(b1-4)GlcNAc
# Method in brief: as §1
# [19] = target: GalNAc(b1-4)GlcNAc(b1-3)GalNAc(b1-4)GlcNAc
# Method in brief: as §1
# [20] = target: GalNAc(b1-4)GlcNAc6S
# Method in brief: as §1
# [21] = target: GalNAc(b1-6)GalNAc
# Method in brief: as §1
# [22] = target: GalNAc3S(b1-4)GlcNAc
# Method in brief: as §1
# [23] = target: GalNAc3S(b1-4)GlcNAc3S
# Method in brief: as §1
# [24] = target: GalNAc3S(b1-4)[Fuc(a1-3)]GlcNAc
# Method in brief: as §1
# [25] = target: GalNAc4S6S(b1-4)GlcNAc
# Method in brief: as §1
# [26] = target: GalNAc6S(b1-4)GlcNAc
# Method in brief: as §1
# [27] = target: Glc(a1-4)Glc
# Method in brief: as §1
# [28] = target: Glc(a1-4)Glc(a1-4)Glc(a1-4)Glc
# Method in brief: as §1
# [29] = target: Glc(a1-6)Glc(a1-6)Glc
# Method in brief: as §1
# [30] = target: Glc(a1-6)Glc(a1-6)Glc(a1-6)Glc
# Method in brief: as §1
# [31] = target: Glc(b1-4)Glc
# Method in brief: as §1
# [32] = target: Glc(b1-6)Glc
# Method in brief: as §1
# [33] = target: GlcA(b1-3)Gal
# Method in brief: as §1
# [34] = target: GlcA(b1-3)GlcNAc
# Method in brief: as §1
# [35] = target: GlcA(b1-6)Gal
# Method in brief: as §1
# [36] = target: GlcA3S(b1-3)Gal(b1-4)GlcNAc(b1-2)Man
# Method in brief: as §1
# [37] = target: GlcA3S(b1-3)Gal(b1-4)GlcNAc(b1-3)Gal(b1-4)Glc
# Method in brief: as §1
# [38] = target: GlcNAc(a1-3)Gal(b1-4)GlcNAc
# Method in brief: as §1
# [39] = target: GlcNAc(a1-4)Gal(b1-3)GlcNAc
# Method in brief: as §1
# [40] = target: GlcNAc(a1-4)Gal(b1-4)GalNAc
# Method in brief: as §1
# [41] = target: GlcNAc(a1-4)Gal(b1-4)GlcNAc
# Method in brief: as §1
# [42] = target: GlcNAc(a1-4)Gal(b1-4)GlcNAc(b1-3)Gal(b1-4)Glc
# Method in brief: as §1
# [43] = target: GlcNAc(a1-4)Gal(b1-4)GlcNAc(b1-3)Gal(b1-4)GlcNAc
# Method in brief: as §1
# [44] = target: GlcNAc(a1-4)Gal(b1-4)GlcNAc(b1-3)Gal(b1-4)GlcNAc(b1-3)Gal(b1-4)GlcNAc
# Method in brief: as §1
# [45] = target: GlcNAc(a1-4)Gal(b1-4)GlcNAc(b1-3)Gal(b1-4)[Fuc(a1-3)]GlcNAc(b1-3)Gal(b1-4)[Fuc(a1-3)]GlcNAc
# Method in brief: as §1
binder,measurement,setting,value
B1,glycan array binding signal (z-score),[1],-0.156
same,glycan array binding signal (z-score),[2],-0.172
same,glycan array binding signal (z-score),[3],-0.124
same,glycan array binding signal (z-score),[4],-0.186
same,glycan array binding signal (z-score),[5],-0.158
same,glycan array binding signal (z-score),[6],-0.154
same,glycan array binding signal (z-score),[7],-0.124
same,glycan array binding signal (z-score),[8],-0.194
same,glycan array binding signal (z-score),[9],-0.168
same,glycan array binding signal (z-score),[10],-0.167
same,glycan array binding signal (z-score),[11],-0.151
same,glycan array binding signal (z-score),[12],-0.153
same,glycan array binding signal (z-score),[13],-0.156
same,glycan array binding signal (z-score),[14],-0.151
same,glycan array binding signal (z-score),[15],-0.133
same,glycan array binding signal (z-score),[16],-0.182
same,glycan array binding signal (z-score),[17],-0.17
same,glycan array binding signal (z-score),[18],-0.17
same,glycan array binding signal (z-score),[19],-0.131
same,glycan array binding signal (z-score),[20],-0.166
same,glycan array binding signal (z-score),[21],-0.176
same,glycan array binding signal (z-score),[22],-0.166
same,glycan array binding signal (z-score),[23],-0.165
same,glycan array binding signal (z-score),[24],-0.178
same,glycan array binding signal (z-score),[25],-0.127
same,glycan array binding signal (z-score),[26],-0.186
same,glycan array binding signal (z-score),[27],-0.167
same,glycan array binding signal (z-score),[28],-0.153
same,glycan array binding signal (z-score),[29],-0.096
same,glycan array binding signal (z-score),[30],-0.15
same,glycan array binding signal (z-score),[31],-0.183
same,glycan array binding signal (z-score),[32],-0.191
same,glycan array binding signal (z-score),[33],-0.16
same,glycan array binding signal (z-score),[34],-0.185
same,glycan array binding signal (z-score),[35],-0.185
same,glycan array binding signal (z-score),[36],-0.173
same,glycan array binding signal (z-score),[37],-0.164
same,glycan array binding signal (z-score),[38],0.751
same,glycan array binding signal (z-score),[39],0.088
same,glycan array binding signal (z-score),[40],-0.155
same,glycan array binding signal (z-score),[41],0.004
same,glycan array binding signal (z-score),[42],-0.141
same,glycan array binding signal (z-score),[43],0.135
same,glycan array binding signal (z-score),[44],0.146
same,glycan array binding signal (z-score),[45],-0.081
